Among the data in paper PMC11111408, “Concurrent inhibition of oncogenic and wild-type RAS-GTP for cancer therapy” (Nature, 2024) are EC50 values, retold here.

This experiment concerns the target HRAS^G13R (Homo sapiens, UniProt P01112+P62937, G13R). The experiment can be described thus: Biochemical RAS–RAF (BRAF RBD) disruption, TR-FRET. An excerpt:
Time-resolved fluorescence resonance energy transfer (TR-FRET) was used as previously described to assess disruption of the interactions between wild-type RAS or the mutant oncogenic RAS proteins and the RAS-binding domain of BRAF, and to assess the induction of interactions between the RAS proteins and CYPA[12].
Background: Time-resolved FRET reads energy transfer from a long-lived donor to a nearby acceptor.

SMILES strings stand for the structures. Certain results were filed several times, with different values. Only these are listed. An entry can have further records. Results that share an entry appear to be repeats (runs, samples, wells or individuals).

As usually defined, the EC50 is the concentration at which the effect is half-maximal. A higher EC50 goes with a less potent agent. For `CCn1c(-c2cc(N3CCN(C4CC4)CC3)cnc2[C@H](C)OC)c2c3cc(ccc31)-c1csc(n1)C[C@H](NC(=O)[C@H]1[C@@H]3COC[C@@H]31)C(=O)N1CCC[C@H](N1)C(=O)OCC(C)(C)C2` [RMC-7977], the EC50 is 23.7 nM and 24 nM [columns of one line].
